Reference: PubChem BioAssay AID1461 (National Center for Advancing Translational Sciences (NCATS), 2008)
The whole screen tested about 220,000 compounds, of which about 2,300 (1%) were called active. Inconclusive results, whose numbers are uncertain, are shown with a selection of clear calls. The call rests on the fitted dose curve; in most records, active means well fitted inhibition curve with a large enough effect; inconclusive means small, poorly fitted or top-dose-only effect, or effect the other way; inactive means no such curve, though single readings can be large or run the other way. A potency beside an inconclusive call is a rough fit, not a confirmed value.

target: Neuropeptide S receptor (Homo sapiens) (UniProt Q6W5P4); assay: qHTS Assay for Antagonists of the Neuropeptide S Receptor: cAMP Signal Transduction; conditions: CHO-NPSR cells, cAMP TR-FRET, antagonist mode; activity change, negative = inhibition: at 38.3 µM (top of the series) unless noted; further: nearly all actives have a fitted effect of over 50% in size
UniProt Q6W5P4, sequence (Q6W5P4 whole entry, looked up): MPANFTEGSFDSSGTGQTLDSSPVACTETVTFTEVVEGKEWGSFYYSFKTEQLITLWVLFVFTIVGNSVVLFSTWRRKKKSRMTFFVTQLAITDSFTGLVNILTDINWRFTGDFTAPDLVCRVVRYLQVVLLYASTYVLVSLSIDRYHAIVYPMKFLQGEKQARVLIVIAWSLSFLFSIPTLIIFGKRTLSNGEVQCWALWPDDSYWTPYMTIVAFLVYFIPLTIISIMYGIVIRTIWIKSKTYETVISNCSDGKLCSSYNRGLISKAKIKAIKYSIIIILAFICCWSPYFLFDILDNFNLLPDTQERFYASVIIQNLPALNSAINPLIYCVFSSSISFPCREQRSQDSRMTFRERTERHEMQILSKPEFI
On the % scale 0 is the no-effect control and ±100 the full control effect; potency means the concentration at half of the fitted maximal effect; tags describe the fitted curve by direction and shape.

Structure (SMILES)	activity change, negative = inhibition	Potency
COC(=O)c1cc(CSc2nnc(NC3CCCCC3)s2)oc1C	inactive: 1.77% [at 46.1 µM]	–
CCOC(=O)CC(=O)CSc1nc(-c2ccc3c(c2)OCO3)cc(C(F)(F)F)c1C#N	–	inconclusive: 12.6 µM [inhibitor, single point]
Cc1noc(C)c1S(=O)(=O)N(CC(=O)N1CCCCCC1)c1ccc(C(C)C)cc1	–	inconclusive: 31.6 µM [inhibitor, single point]
COc1cccc(OCc2nc3ncc(Br)cc3[nH]2)c1	–	inconclusive: 10 µM [activator, single point]
O[Si](CCCN1CCCCC1)(c1ccc(F)cc1)C1CCCCC1 (centres undefined)	–	inconclusive: 12.6 µM [inhibitor, single point]
O=S(=O)(c1ccc(F)cc1)N1CCN(CC(O)COCc2cccs2)CC1 (centres undefined)	–	inconclusive: 5.01 µM [inhibitor, single point]
COC(=O)c1ccccc1NC(=O)c1cnn2c(C(F)F)cc(C3CC3)nc12	–	inconclusive: 6.31 µM [inhibitor, single point]
O=C(NNS(=O)(=O)c1ccc(C(=O)NC2CCCC2)cc1)c1ccncc1	inactive: 5.54%	–
CCc1ccc(C(=O)c2cnc3ccc(OC)cc3c2N2CCN(CC)CC2)cc1	–	inconclusive: 10 µM [inhibitor, single point]
CC1CN(c2nc3c(c(=O)n(Cc4ccc(Cl)c(Cl)c4)c(=O)n3C)n2C)CC(C)O1 (centres undefined)	–	inconclusive: 15.8 µM [inhibitor, partial curve]
Cc1cc(C(=O)N2CCc3c([nH]c4ccccc34)C2c2c(F)cccc2Cl)no1 (centres undefined)	–	inconclusive: 15.8 µM [activator, partial curve, poor fit]
O=C(N/N=C/C1CC2C=CC1C2)c1ccccc1O (centres undefined)	inactive: 12.4%	–
OC(COCC(F)(F)C(F)(F)C(F)(F)C(F)F)Cn1c2ccccc2c2ccccc21 (centres undefined)	–	inconclusive: 25.1 µM [inhibitor, single point]
O=C(Nc1nc2ccccc2n1Cc1ccc(Cl)cc1)c1ccco1	–	inconclusive: 2.51 µM [inhibitor, partial curve]
C=CCOc1ccc2nc(NC(=O)OC)[nH]c2c1	–	inconclusive: 10 µM [activator, single point]
CCOC(=O)Cn1nnnc1CN(Cc1ccccc1)Cc1cc2cc(CC)ccc2[nH]c1=O	–	inconclusive: 7.94 µM [inhibitor, partial curve]
FC(F)(F)c1cccc(N2CCN(CC3CC=CCC3)CC2)c1 (centres undefined)	–	inconclusive: 12.6 µM [inhibitor, single point]
CCCCC(c1nnnn1CC1CCCO1)N1CCN(c2nc3ccccc3s2)CC1 (centres undefined)	–	inconclusive: 12.6 µM [inhibitor, single point]
COc1ccc(C(=O)N(c2ccc(OC)cc2)S(=O)(=O)c2cccs2)cc1	inactive: -11.7%	–
N=c1c2c(ncn1Cc1ccco1)Oc1ccc3ccccc3c1C2c1ccccc1 (centres undefined)	–	inconclusive: 25.1 µM [inhibitor, single point]
COc1cccc(COc2ccccc2C2Nc3ccc(Br)cc3C(=O)N2NC(=O)c2ccncc2)c1 (centres undefined)	–	inconclusive: 10 µM [inhibitor, partial curve]
CCOC(=O)c1nn(-c2ccc(Cl)cc2)c2nc(CC)c(C#N)c(=O)n12	inconclusive: 30.5% [activator] [at 46.1 µM]	–

Structure (SMILES)	activity change, negative = inhibition	Potency
Cc1cc(C)c(S(=O)(=O)/N=C2/C=C(Sc3ncn[nH]3)C(=O)c3ccccc32)cc1C	–	inconclusive: 12.6 µM [inhibitor, single point]
CC1CCCCC1NC(=O)CN1C(=O)c2cccc(N)c2C1=O (centres undefined)	inactive: 5.07%	–
NC(=O)Cc1c[nH]c2cccc(O)c12	–	inconclusive: 10 µM [inhibitor, single point]
CC1CN(S(=O)(=O)c2cccc(-c3cn4ccccc4n3)c2)CC(C)O1 (centres undefined)	–	inconclusive: 5.01 µM [inhibitor, single point]
CCN(Cc1ccccc1)C(=O)COc1cc(=O)n(CC)c2ccccc12	inactive: -11.1% [at 46.1 µM]	–
Cc1ccc(-c2noc(CSc3nnc(CCc4ccccc4)n3-c3ccccc3)n2)cc1	–	inconclusive: 12.6 µM [inhibitor, partial curve, poor fit]
C/C(=N\NC(=O)c1ccc(OC2OCCOC2Oc2ccc(C(=O)N/N=C(\C)c3ccncc3)cc2)cc1)c1ccncc1 (centres undefined)	inactive: 3.6%	–
Cc1ccc2nc(SCC(=O)NCc3cccs3)c(C#N)cc2c1	–	active: 10 µM
CN(C)c1ccc(N/C=C/C(=O)c2ccccc2)cc1	–	inconclusive: 12.6 µM [inhibitor, single point]
CCNC(=S)N(CCc1c(C)[nH]c2ccc(C)cc12)Cc1cccs1	inactive: -41%	–
O=C(NC(=S)Nc1ccc(N2CCOCC2)c(Cl)c1)C(c1ccccc1)c1ccccc1	–	inconclusive: 0.199 µM [inhibitor, full curve, poor fit]
O=C(NC(=S)Nc1nc(-c2cccc3ccccc23)cs1)c1cc2ccccc2o1	–	inconclusive: 10 µM [inhibitor, partial curve, poor fit]
Cc1cc2cc(C=C(C#N)C#N)c(Cl)nc2cc1C	inactive: -58%	–
COc1ccc(C(=O)NC(=S)Nc2ccc([N+](=O)[O-])cc2C)cc1OC	inactive: -3.24% [at 46.1 µM]	–
CCOC(=O)c1c(C)[nH]sc1=S	–	inconclusive: 6.31 µM [activator, partial curve]
COc1ccc(-c2[nH]nc3c2C(c2ccc(OC(=O)N4CCOCC4)cc2)C(C#N)=C(N)O3)cc1 (centres undefined)	–	active: 12.6 µM
CC1=CN2C(=N)/C(=C/c3ccc([N+](=O)[O-])o3)C(=O)N=C2S1	–	active: 12.6 µM
O=C(CCC(=O)OCC(=O)c1ccc(Cl)cc1Cl)Nc1cccc2cccnc12	inactive: -7.85% [at 46.1 µM]	–
CCOC(=O)c1c(N2C(=O)C3C4C=CC(C4)C3C2=O)sc2c1CCC(C)C2 (centres undefined)	inactive: -27.8%	–
O=C(/C=C/Sc1ccccc1)c1ccccc1	–	inconclusive: 12.6 µM [inhibitor, single point]
CCOC(=O)CNS(=O)(=O)c1cc(-c2nnc(Nc3ccc4c(c3)OCO4)c3ccccc23)ccc1C	–	inconclusive: 10 µM [inhibitor, single point]
CC(C)CNc1nnnc2c1sc1nc(N3CCOCC3)c3c(c12)CC(C)(C)SC3	–	inconclusive: 12.6 µM [inhibitor, partial curve]
